Out of some 410,000 compounds screened, about 530 (0.13%) were called active. The shares of active, inactive and inconclusive entries below differ from those in the screen. Calls follow the shape of the dose curve; as a rule, active = well fitted inhibition curve with a large enough effect; inconclusive = small, poorly fitted or top-dose-only effect, or another doubt; inactive = no such curve, though single readings can be large or run the other way. Potencies of inconclusive entries are doubtful fits and often do not repeat.
Test: qHTS of GLP-1 Receptor Inverse Agonists: Cytotox Screen
Conditions: HEK293 cAMP-luciferase reporter cells, luminescence, 24 h; activity change, negative = inhibition: at 38.3 µM (top of the series) unless noted
Method in brief: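 Compound-treated cells are incubated 24 hr at 37 deg C under 5% CO2 after a 12 hour attachment period, then luciferase detection reagent is added and luminescence is measured following 12 min at room temperature; lowered signal indicates toxicity.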
% is scaled to controls: 0 for no effect and ±100 for the full control effect; potency is read from the fitted curve at half-maximal effect.

| Structure (SMILES) | Potency | activity change, negative = inhibition |
| --- | --- | --- |
| Cc1cnc(NC(=O)c2ccccn2)s1 | inconclusive: 10 µM [inhibitor, partial curve, poor fit] | – |
| Cc1ccc(N2CCN(C(=O)c3cnn(-c4ccc(C)c(C)c4)c3C3CCNCC3)CC2)c(C)c1 | inconclusive: 31.6 µM [inhibitor, partial curve, poor fit] | – |
| CCOC(=O)C1CCCN(C(=O)Cn2sc3nc(C)cc(C)c3c2=O)C1 (configuration not stated) | inconclusive: 14.1 µM [inhibitor, single point] | – |
| O=C(CCc1ccc(S(=O)(=O)NC2CCCCC2)cc1)Nc1ccccc1 | – | inactive: -2.81% |
| CC(C)(C)C(=O)Nc1ccc(N=Nc2ccccc2)cc1 | inconclusive: 7.94 µM [inhibitor, partial curve, poor fit] | – |
| CCc1ccc(S(=O)(=O)c2cn(CC)c3cc(N4CCCCC4)c(F)cc3c2=O)cc1 | – | inactive: 1.15% |
| CCNc1nc(NCC)nc(N/N=C/c2ccccc2)n1 | inconclusive: 12.6 µM [inhibitor, single point] | – |
| O=C(COc1ccc(Oc2ccccc2)cc1)NCc1cn2ccccc2n1 | inconclusive: 28.2 µM [inhibitor, single point] | – |
| Cc1ccc(C)c(CN2CCC(CNC(=O)CCc3nnc4ccc(N5CCC(C)CC5)nn34)CC2)c1 | inconclusive: 22.4 µM [inhibitor, single point] | – |
| OCCn1c(-c2ccc3c(c2)OCO3)csc1=Nc1ccccc1 | – | inactive: -29.1% |
| CCCN1CCN(C(=S)Nc2ccc3nc(N4CCN(CC)CC4)cc(C)c3c2)CC1 | active: 3.16 µM | – |
| COc1cc(/C=C(\C#N)C(=O)N2CCOCC2)ccc1OCc1ccccc1 | – | inactive: -15.3% |
| O=c1[nH]n2c(=O)c3c([nH]c2c1N=Nc1cccc(Cl)c1)CCCC3 | inconclusive: 10 µM [inhibitor, partial curve, poor fit] | – |
| Cc1ccc(NC(=S)Nc2ccc(OC(F)F)c(Cl)c2)cc1Cl | inconclusive: 11.2 µM [inhibitor, partial curve] | – |
| N=C1C(c2nc3ccccc3s2)=C(O)CN1Cc1ccccc1 | inconclusive: 6.31 µM [inhibitor, partial curve, poor fit] | – |
| CN(C)/C=C1\SC(=S)N(N2C(=O)C3C4C=CC(C4)C3C2=O)C1=O (configuration not stated) | inconclusive: 28.2 µM [inhibitor, single point] | – |
| Oc1ccc(-c2nc3ccc4ccccc4c3c3c2CCC3)cc1O | inconclusive: 20 µM [inhibitor, single point] | – |
| O=C(NC(=S)Nc1ccccc1Cl)c1cncc(Br)c1 | inconclusive: 3.16 µM [inhibitor, single point] | – |
| COc1ccc(OC)c(Nc2cc(C)nc3ccc(C)cc23)c1 | inconclusive: 3.16 µM [inhibitor, full curve, poor fit] | – |
| OCCCCNCc1cc(Br)ccc1OCc1ccccc1F | inconclusive: 28.2 µM [inhibitor, single point] | – |
| Cc1cc(N)n2nc(C(F)(F)F)nc2n1 | inconclusive: 11.2 µM [inhibitor, single point] | – |

| Structure (SMILES) | Potency | activity change, negative = inhibition |
| --- | --- | --- |
| O=c1cc(N2CCCCC2)c(-c2ccccc2)nn1Cc1c(Cl)cccc1Cl | inconclusive: 28.2 µM [inhibitor, single point] | – |
| COc1ccc(/C=C/C(=O)Nc2cc(C)nn2-c2nc3ccccc3[nH]2)cc1 | inconclusive: 2.51 µM [inhibitor, full curve, poor fit] | – |
| c1ccc(N2CCN(c3nc(-c4ccccn4)nc4ccccc34)CC2)cc1 | inconclusive: 0.501 µM [inhibitor, full curve, poor fit] | – |
| Cn1c(=O)c2c(ncn2Cc2ccc(Cl)cc2)n(C)c1=O | inactive | – |
| CCCCn1c(=N)n(CCOc2ccc(C)cc2)c2ccccc21 | – | inactive: -25.4% |
| Cc1c(C(=O)N/N=C/c2ccc(N(C)C)cc2)[nH]c2ccc(Cl)cc12 | – | inactive: 63% |
| C#CCOCCOCCOCCNc1nc(N2CCN(C(=O)CCCCCCCCCCNC(=O)[C@H](CCCCN)n3cc(C)nn3)CC2)nc(N2CCN(C(=O)CCCCCCCCCCNC(=O)[C@@H]([C@H](C)O)n3cc(C)nn3)CC2)n1 | inconclusive: 7.08 µM [inhibitor, partial curve, poor fit] | – |
| COc1ccccc1NC(=O)c1cn(-c2ccccc2)nc1-c1ccccc1 | – | inactive: 22% |
| CCN1CCN(c2cc(C)c3cc(NC(=S)NCCCN4CCc5ccccc5C4)ccc3n2)CC1 | inconclusive: 0.501 µM [inhibitor, full curve, poor fit] | – |
| Cc1c(CN2CCC(CO)(CCOc3ccccc3)CC2)[nH]c2ccc(Cl)cc12 | inconclusive: 20 µM [inhibitor, single point] | – |
| CCOc1c(O)ccc(/C=C2\SC(=S)NC2=O)c1[N+](=O)[O-] | inconclusive: 14.1 µM [inhibitor, single point] | – |
| N#C/C(=C\c1ccc(O)c([N+](=O)[O-])c1)c1nc2ccccc2s1 | inconclusive: 28.2 µM [inhibitor, single point] | – |
| Nc1nc(F)nc2c1ncn2[C@@H]1O[C@H](CO)[C@@H](O)[C@H]1O | inconclusive: 2.24 µM [inhibitor, full curve] | – |
| O=[N+]([O-])c1ccc(/C([O-])=C(/C(=S)NCc2ccco2)[n+]2ccccc2)cc1 | inconclusive: 11.2 µM [inhibitor, partial curve] | – |
| CN1CCN(C(CNS(=O)(=O)c2ccc(Br)cc2)c2ccc3c(c2)OCO3)CC1 (configuration not stated) | – | inactive: 15.9% |
| COc1ccc(-c2cc(C(F)(F)F)n3nc(C(=O)Nc4cc(C)ccc4C)cc3n2)cc1 | – | inactive: -9.53% |
| CC(C)Oc1ccc(C(=O)CCN2CCCCC2)cc1 | – | inactive: -5.41% |
| Nc1cc(C(F)(F)F)ccc1N1CCOCC1 | inconclusive: 0.447 µM [inhibitor, partial curve, poor fit] | – |
| COC(=O)[C@]12CCCCC=C1N(Cc1ccc3c(c1)OCO3)C(=O)[C@H](CC(=O)NCc1ccc(OC)c(OC)c1)C2 | – | inactive: -14.4% |
| CCOC(=O)c1c(C)oc2c(CC(=O)c3ccccc3)c(Cl)c(O)c(O)c12 | inconclusive: 28.2 µM [inhibitor, single point] | – |
| O=C(C1CCN(Cc2ccccc2O)CC1)N1CCN(Cc2ccc3c(c2)OCO3)CC1 | – | inactive: 13.5% |
